# Results from PubChem BioAssay AID1508623 (National Center for Advancing Translational Sciences (NCATS), 2021).
# The campaign covered roughly 48,000 compounds. About 450 (0.94%) were called active. Inconclusive results (about 19%) are left out. The call rests on the fitted dose curve; in most records, active means well fitted inhibition curve with a large enough effect; inconclusive means small, poorly fitted or top-dose-only effect; inactive means no such curve, though single readings can be large or run the other way. The list shows a part of the results.
# Experiment: Primary qHTS for Identification of Small Molecule Inhibitors of Huntingtin Promoter Activity; further: nearly all actives have a fitted effect of over 50% in size
# Details: HEK293 HTT promoter firefly luciferase reporter (activity 0% = vehicle and -100% = no light), 24 h; series mostly up to 57.5 µM; activity change, negative = inhibition: at the top concentration
# Method in brief: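 Firefly luciferase signal from promoter-reporter HEK293 cells was scaled between vehicle (0%) and zero RLU (-100%). Compounds were tested at final concentrations of up to 57.5 uM over 24 h at 37 degrees C. PTC124 at 50 uM final served as control inhibitor.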
row,Structure (SMILES),"activity change, negative = inhibition"
1,COc1ccc(NC(=O)Cn2ncc3c([nH]c4ccccc43)c2=O)cc1Cl,inactive: 5.28%
2,CCC(C(=O)NCc1ccccc1)n1ncn2c(cc3occc32)c1=O (configuration not stated),inactive: -8.43%
3,Cc1cccc(C(=O)Nc2cccc(C(=O)OCc3cc(=O)n4ccsc4n3)c2)c1,inactive: -0.114%
4,COc1ccc(Br)cc1CNC(=O)CN1C(=O)CSc2ccc(S(=O)(=O)N3CCOCC3)cc21,inactive: -11.3%
5,Cc1ccc(NC(=O)c2cc3c(=O)n(Cc4cccnc4)ccc3nc2C)cc1F,inactive: 6.63%
6,COc1ccc(NC(=O)CNS(=O)(=O)c2cccs2)c(OC)c1,inactive: 4.16%
7,COc1ccc(OC)c(CNC(=O)c2cccc(NC(=O)N3CCSc4ncccc43)c2)c1,inactive: -27.5%
8,NS(=O)(=O)c1cc2c(cc1Cl)NC=NS2(=O)=O,inactive
9,O=c1c2oc3ccccc3c2n(Cc2cccc(C(F)(F)F)c2)c(=O)n1Cc1ccc2c(c1)OCO2,inactive: -13.7%
10,CCOc1ccccc1N(C)C(=O)NCc1noc2ccccc12,inactive: -11.2%
11,CCn1cc(C(=O)NC(C)c2ccccc2)c(=O)c2cc(S(=O)(=O)N3CCc4ccccc4C3)ccc21 (configuration not stated),inactive: -23.1%
12,Cc1ccc(-n2nc(C)c3nc(CCC(=O)Nc4ccc(F)cc4)c(=O)n(C)c32)cc1,inactive: 3.41%
13,Cc1ccc(NC(=O)Cn2cc(S(=O)(=O)N3CCCC3)c(S(=O)(=O)N3CCCC3)c2)c(C)c1,inactive: 17.9% [at 11.5 µM]
14,CC(C)Nc1cccnc1N1CCN(C(=O)c2cc3cc(NS(C)(=O)=O)ccc3[nH]2)CC1,inactive: -4.35%
15,O=C(NCCc1ccc(Cl)cc1)c1cccn1-c1nnc(N2CCCC2)s1,inactive: -17.1%
16,COc1ccc(C(=O)c2cn(CC(=O)Nc3ccc4c(c3)OCO4)c3ccc(OC)cc3c2=O)cc1,inactive: -16.5%
17,CCCn1cc(S(=O)(=O)c2ccccc2)c(=O)c2cc(F)c(N3CCCC3)cc21,inactive: -9.29%
18,CCc1ccccc1NC(=O)c1cc(S(=O)(=O)NC2CCCC2)ccc1F,inactive: -25.2%
19,Nc1ccc(S(=O)(=O)Nc2ccccc2)cc1,inactive: -6.64%
20,COc1ccc(-n2nc(C(=O)N3CCN(c4cccc(C)c4)C(C)C3)c3c4ccccc4n(C)c3c2=O)cc1 (configuration not stated),inactive: -4.05%
21,CCCn1ccc2c(OCC(=O)Nc3ccc(F)cc3F)cccc2c1=O,inactive: -25.1%
22,Cc1cccc(NC(=O)CSc2nc3c([nH]c4ccccc43)c(=O)n2-c2ccc(F)cc2)c1C,inactive: -24.8%
23,Cc1ccc(C(=O)N/C(=C\c2cn(S(=O)(=O)N(C)C)c3ccccc23)C(=O)NCCCn2ccnc2)cc1,inactive: 0.187%
24,COc1ccc(CNC(=O)CN2C(=O)COc3ccc(S(=O)(=O)N4CCCCCC4)cc32)cc1,inactive: -13.9%

row,Structure (SMILES),"activity change, negative = inhibition"
1,COc1ccc(-n2c(SCC(=O)NCc3ccccc3)nc3ccsc3c2=O)cc1,inactive: -11.9%
2,COC(=O)c1sccc1S(=O)(=O)N(CC(=O)Nc1cc(C)cc(C)c1)c1ccc(Cl)cc1,inactive: -0.947%
3,COc1ccc(C2(C#N)CCC(C(=O)O)CC2)cc1OC1CCCC1 (configuration not stated),inactive: 32.7%
4,COc1ccc(CNC(=O)c2ccc(CNS(=O)(=O)c3ccc(OC)cc3)cc2)cc1,inactive: -6.17%
5,COc1cccc(NC(=O)c2ccc3c(=O)n4nc(Nc5ccccc5OC)sc4nc3c2)c1,inactive: -7.92%
6,COCCCNC(=O)c1ccc(Cn2c(=O)c3ccccc3n(Cc3ccc(C)cc3)c2=O)cc1,inactive: -10.4%
7,COCCOC(=O)Cn1nnc2sc(-c3ccccc3)cc2c1=O,inactive: -6.49%
8,Cc1nn(S(=O)(=O)c2ccc(C(C)C)cc2)c(C)c1S(=O)(=O)N1CCCCC1,inactive: -8.93%
9,Cc1ccc2c(c1)-c1c(cnn1CC(=O)N1CCN(c3cccc(C(F)(F)F)c3)CC1)CO2,inactive: -19.2%
10,CC(=O)OC[C@@H]1O[C@@H](n2ccc(=O)[nH]c2=O)[C@H](OC(C)=O)[C@H]1OC(C)=O,inactive: -20.8%
11,CCc1cccc(C)c1NS(=O)(=O)c1ccc2c(c1)NC(=O)C(C)C(=O)N2 (configuration not stated),inactive: -15.3%
12,CCOc1ccc(-n2c(=O)c3c4c(sc3n(CC(=O)NCCCOC)c2=O)CCCCC4)cc1,inactive: -12.9%
13,CCN(CC)c1ccc2cc(-c3nc(-c4ccccc4)no3)c(=O)oc2c1,inactive: 20.5%
14,Cc1ccc(CNC(=O)c2c(-c3ccc(F)cc3F)noc2C)o1,inactive: -10.8%
15,Cc1cc(C)c(NC(=O)Cn2nnc(C(=O)NCc3cccs3)c2N)c(C)c1,inactive: -14.3%
16,COc1ccc(-c2cn3nc(N4CCCC(C(=O)Nc5cc(Cl)ccc5OC)C4)sc3n2)cc1 (configuration not stated),inactive: -3.53%
17,COc1cc(NC(=O)Cn2c(=O)n(-c3ccccc3)c(=O)c3c4c(sc32)CCCC4)cc(OC)c1,inactive: -10.4%
18,COc1ccc(CC(=O)NCC(c2ccc(N(C)C)cc2)N2CCOCC2)cc1OC (configuration not stated),inactive: -5.2%
19,CCOC(=O)c1cc2c(=O)n3ccccc3nc2n(Cc2ccco2)c1=NC(=O)c1ccc(OC)cc1,inactive: -3.59%
20,CSc1ccc(CNC(=O)c2ccc3c(c2)N(C)C(=O)C2CCCCN32)cc1 (configuration not stated),inactive: 21.4%
21,CC(C)COc1ccc(C(=O)Nc2scc(-c3ccc(Br)cc3)c2C(=O)OC(C)C)cc1,inactive: -17.6%
22,Cc1nc2cccnc2n1C1CCN(C(=O)Nc2ccccc2C(F)(F)F)CC1,inactive: 9.52%
23,COc1ccc(CCN(C)CCCN2CCc3cc(OC)c(OC)cc3CC2=O)cc1OC,inactive: -0.968%
